Assay results as given in PubChem BioAssay AID1345082 (National Center for Advancing Translational Sciences (NCATS), 2018).
About 4,000 (4.3%) of roughly 94,000 compounds were called active. The shares of active, inactive and inconclusive entries below differ from those in the screen. The call rests on the fitted dose curve; in most records, active means well fitted inhibition curve with a large enough effect; inconclusive means small, poorly fitted or top-dose-only effect; inactive means no such curve, though single readings can be large or run the other way. Where the call is inconclusive, the potency comes from a doubtful curve fit.

Assay: Cytotoxic Profiling in NIH 3T3 Cell Line of Diverse Libraries Using Quantitative High-Throughput Screening; further: nearly all actives have a fitted effect of over 55% in size
Conditions: NIH 3T3 viability, CellTiter-Glo ATP luminescence, 48-72 h; series mostly up to 96.7 µM
How it was run: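 Cytotoxicity is measured as loss of cellular ATP: NIH 3T3 cells (400/well) are exposed to compound for 48 or 72 hr at 37 °C, then CellTiter-Glo luminescence is imaged after 10 min at room temperature.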
Potency means the concentration at half of the fitted maximal effect; tags describe the fitted curve by direction and shape.

| Compound | Potency |
| --- | --- |
| Cc1nc(-c2ccccc2)n(CC(=O)Nc2cccc(Cl)c2)c(=O)c1CCO | inconclusive: 31.6 µM [inhibitor, partial curve] |
| O=C(c1ccc(C(F)(F)F)cc1)N1CCCC(C(=O)N2CCC(c3nc4ncccc4[nH]3)C2)C1 (stereo unspecified) | inactive |
| O=C1C2CN(Cc3ccccc3Cl)CCC2OCCN1Cc1ccccc1 (stereo unspecified) | inconclusive: 100 µM [inhibitor, partial curve, poor fit] |
| COc1ccc(C(=O)N[C@H]2C[C@@H](c3nc(-c4ccc(Cl)cc4)no3)N(C)C2)cc1 | inconclusive: 79.4 µM [inhibitor, partial curve] |
| Cc1noc(C)c1CN1CCC2(CC1)CC(c1ccccc1)C(=O)N2C (stereo unspecified) | inconclusive: 70.8 µM [inhibitor, partial curve, poor fit] |
| CC(=O)N1CCN(Cc2nnc3cc(-c4nc(-c5ccccc5)no4)ccn23)CC1 | inactive |
| CCc1ccccc1CN1CCC(CO)(CN2CCCC2)CC1 | inconclusive: 56.2 µM [inhibitor, partial curve, poor fit] |
| O=C(Nc1cccc(C(F)(F)F)c1)O[C@@H]1CO[C@H]2[C@@H]1OC[C@@H]2Nc1nccc(-c2ccccc2)n1 | inconclusive: 56.2 µM [inhibitor, partial curve, poor fit] |
| CCNC(=O)Nc1ccc(C(C(=O)O)N2CCOCC2)cc1OC (stereo unspecified) | inactive |
| O=C(CCC1CCCC1)NCCc1noc(C2CC2)n1 | inactive |
| CCc1nc2c(c(-c3ccc(Cl)cc3)n1)CCN(Cc1ccc(OC)cc1)CC2 | inconclusive: 50.1 µM [inhibitor, partial curve, poor fit] |
| COCCn1cc2c3c(cccc31)CN(C(=O)Cc1ccccc1C)CC2 | inactive |
| CSc1cccc(NC(=O)O[C@@H]2CC[C@]3(C)C(CC[C@@H](O)[C@H]3CC(=O)NCc3ccccc3)[C@]2(C)CO)c1 (stereo partly specified) | active: 39.8 µM |
| Cc1ccc(NC(=O)O[C@@H]2CC[C@]3(C)[C@H](CC[C@H]4OC(=O)C[C@H]43)[C@]2(C)CO)cc1 | inactive |
| O=C(c1ccncc1)N1CC2CCC(C1)N2Cc1ccc(-c2cccnc2)cc1 | inconclusive: 39.8 µM [inhibitor, partial curve, poor fit] |
| O=C1Nc2ccccc2CC12CN(CC1CCNCC1)C2 | inactive |
| COc1cccc(CNC(=O)Cn2c(C)cc3nc4n(c(=O)c32)CCCCC4)c1 | inactive |
| COCCN1CCC2(C1)CN(C)c1ccc(C(=O)NCC3CC3)cc12 (stereo unspecified) | inconclusive: 89.1 µM [inhibitor, partial curve, poor fit] |
| O=C(NC1CC1)c1ccccc1OCC1CCCN(CC2=Cc3ccccc3OC2)C1 (stereo unspecified) | inconclusive: 44.7 µM [inhibitor, partial curve, poor fit] |
| COCCn1c(=O)n([C@H]2CCCN(C(=O)NCCc3ccccc3)C2)c2ncccc21 | inactive |
| CC(C)CCN1C(=O)CC[C@]2(C(=O)N3CCN(C)CC3)CCCC[C@@H]12 | inactive |

| Compound | Potency |
| --- | --- |
| CC(=O)NCC(=O)N1CCC(n2cc(-c3nc(-c4ccccc4)no3)nn2)CC1 | inactive |
| O=C(NCCCc1ccccc1)c1cn2cc(-c3ccc(F)cc3)sc2n1 | active: 20 µM |
| CC1(c2ccccc2)N(Cc2cccnc2)C(=O)OC12CCN(Cc1ccccc1O)CC2 (stereo unspecified) | inactive |
| Cc1noc2c(NC3CCN(C)CC3)cc(-c3ccccc3)nc12 | inconclusive: 28.2 µM [inhibitor, full curve, poor fit] |
| Cn1cc(C(=O)NCC2CN(C(=O)Cc3cccc(Oc4ccccc4)c3)CC23CN(c2ccccc2)C3)cn1 (stereo unspecified) | inconclusive: 70.8 µM [inhibitor, single point] |
| CC(=O)N1CCN(C(=O)c2cn3cc(-c4ccc(C(F)(F)F)cc4)sc3n2)CC1 | inconclusive: 44.7 µM [inhibitor, partial curve, poor fit] |
| Cc1cc(C)c(S(=O)(=O)N2CC(c3nc(Cc4ccccc4)no3)C2)c(C)c1 | inconclusive: 39.8 µM [inhibitor, partial curve, poor fit] |
| CN(C)CCCOCC1(C)COc2ccc(C(=O)N3CCOCC3)cc2N1 (stereo unspecified) | inconclusive: 112 µM [inhibitor, single point] |
| COc1cccc(-c2cn3cc(C(=O)NCCc4ccccc4)nc3s2)c1 | inconclusive: 50.1 µM [inhibitor, partial curve, poor fit] |
| CNC(=O)c1cc(Nc2cccc(N(C)C)c2)cc2c1OCCN2Cc1cccnc1 | inconclusive: 56.2 µM [inhibitor, partial curve, poor fit] |
| Cn1cc(C(=O)NCC2CN(C(=O)c3ccc(Oc4ccccc4)cc3)CC23CN(c2ccccc2)C3)cn1 (stereo unspecified) | inconclusive: 50.1 µM [inhibitor, partial curve, poor fit] |
| CCc1ccc(S(=O)(=O)Nc2cccn3nc(CC)nc23)cc1 | inconclusive: 39.8 µM [inhibitor, partial curve, poor fit] |
| O=C(NCCc1ccccc1)C1CCN(c2nccc(Nc3ccccc3Cl)n2)CC1 | inconclusive: 11.2 µM [inhibitor, full curve, poor fit] |
| CCN1c2cc(C(=O)N3CCN(c4ccccn4)CC3)ccc2C(=O)N2CCCCCC21 (stereo unspecified) | inconclusive: 12.6 µM [inhibitor, partial curve, poor fit] |
| Cc1ccc(C(=O)N2CCC(c3nnc(Cn4cncn4)n3C)CC2)cc1F | inactive |
| c1ccc2sc([C@H]3CCN(Cc4ccc5c(c4)OCO5)C3)nc2c1 | inconclusive: 89.1 µM [inhibitor, partial curve, poor fit] |
| COc1ccc(N2CCN(c3nc(C(=O)NC4CCCCCC4)cs3)CC2)cc1 | inconclusive: 50.1 µM [inhibitor, partial curve, poor fit] |
| CN(C)CC(=O)NC1CCN(c2ccc3nnc(C4CC4)n3n2)CC1 | inactive |
| CCOC(=O)C[C@@H]1C[C@@H](C(C)C)[C@H](CNS(=O)(=O)c2ccc(NC(C)=O)cc2)C=C1C | inconclusive: 56.2 µM [inhibitor, partial curve, poor fit] |
| Cn1cc(CC(=O)N2CCCc3ncc(C(=O)N4CCN(CCO)CC4)cc32)c2ccccc21 | inconclusive: 56.2 µM [inhibitor, partial curve, poor fit] |
